Out of some 110,000 compounds screened, about 40 (0.04%) were called active. The shares of active, inactive and inconclusive entries below differ from those in the screen. The call rests on the fitted dose curve; in most records, active means well fitted curve in the direction sought with a large enough effect in the signal ratio (not every such curve was filed as active); inconclusive means small, poorly fitted or top-dose-only effect, or a change in a side signal; inactive means flat fitted curve, though single readings scatter; the % refers to the signal ratio. Potencies beside an inconclusive call are fits to weak or partial responses and may not hold up.
Test: IkB Signaling;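 on IkBa stabilization activation: 0% = basal untreated cells and 100% = reference inhibitor full response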
Conditions: ABC-DLBCL IkBa-CBG/CBR dual luciferase ratio (green luciferase fused to IkBa over red control in OCI-Ly3 lymphoma cells), 4 h; IkBa stabilization activation: at 57.1 µM (top of the series), scaled: untreated 0%, proteasome inhibitor 100% unless noted
How it was run: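 Curves were fitted separately to fusion (green), unfused (red) and ratio luminescence, then classed by r2, magnitude and activity. Cells: OCI-Ly3, 4 h compound plus doxycycline at 37C; 10 uM MG-132 defined full response.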
Potency means the concentration at half of the fitted maximal effect.

Row | SMILES | IkBa stabilization activation | Potency
1 | O=C(O)COc1ccccc1C1Nc2ccccc2-c2nnc(SCc3ccc(Cl)cc3)nc2O1 (configuration not stated) | inactive | –
2 | CC[C@@H]1[C@H]2CCCCN3[C@@H]2[C@@H](C[C@H]3[C@@H]2C[C@H](C)C(=O)O2)[C@@H]2[C@H]1OC(=O)[C@H]2C | inactive: 1.95% [at 11.4 µM, scaled: untreated 0%, proteasome inhibitor 100%] | –
3 | CCC(Sc1ncnc2sc3c(c12)CCCC3)C(=O)OCC(C)C (configuration not stated) | inconclusive: 5.97% [signal inhibitor] | –
4 | CCOC(=O)N1CCC(NC(=O)c2cnn(-c3ccc(C)cc3)c2C2CCN(C(=O)OC(C)(C)C)CC2)CC1 | inconclusive: 0.834% [signal inhibitor] | –
5 | COc1ccc(-n2c(SCc3nc(-c4ccc(Cl)cc4)no3)nnc2-c2ccncc2)cc1 | inconclusive: 1.45% [signal inhibitor] | –
6 | CCOc1ccc(-c2cc(CCCC(=O)NCCc3ccc(OC)c(OC)c3)no2)cc1 | inconclusive: 9.51% [signal inhibitor] | –
7 | CC(C)(C)C(=O)Nc1ccc2nc(SCCOc3ccccc3Cl)sc2c1 | inconclusive: 2.92% [signal inhibitor] | –
8 | Oc1cccc(Nc2cc(-c3ccccc3)ncn2)c1 | inconclusive: 5.34% [signal inhibitor] | –
9 | COc1ccc(-n2c(=O)c(-c3cccs3)nc3cncnc32)cc1 | inactive: 1.22% [at 11.4 µM, scaled: untreated 0%, proteasome inhibitor 100%] | –
10 | CCc1ccccc1NC(=O)Cn1nnc(C(=O)Nc2ccc(OC)c(OC)c2)c1N | inconclusive: 4.09% [signal inhibitor] | –
11 | CCOc1cccc(C(=O)Nc2ccc(-c3nc4cc(C)cc(C)c4o3)cc2)c1 | – | inconclusive: 25.1 µM [signal inhibitor, partial curve]
12 | Cc1cccc(NC(=O)c2oc3ccc(S(=O)(=O)N(C)C4CCCCC4)cc3c2C)c1C | inactive | –
13 | CCCCN(Cc1ccco1)C(=O)c1cc2c(s1)-c1c(C)cccc1OC2 | inconclusive: -1.21% [signal inhibitor] | –
14 | CCOCCCNC(=O)Cn1cc2c(n1)-c1c(oc(C(=O)N3CCCC3)c1C)CC2 | inconclusive: -0.148% [signal inhibitor] | –
15 | CCc1ccccc1NC(=O)c1cnn(-c2ccc(F)cc2)c1C1CCNCC1 | inconclusive: 3.92% [signal inhibitor] | –
16 | COc1ccc(-n2ncc(C(=O)NCCCN3CCCCC3)c2C2CCN(C(=O)OC(C)(C)C)CC2)cc1 | inactive | –
17 | CCOC(=O)C1CCCN(CC(=O)NC2=Nc3ccccc3N=C(C)C2c2ccccc2)C1 (configuration not stated) | inconclusive: -0.515% [signal inhibitor] | –
18 | Cc1cccc(NC(=O)CN2C(=O)COc3ccc(Cl)cc32)c1 | inconclusive: 4.99% [signal inhibitor] | –
19 | COc1cc(O)ccc1-c1nc2cc(C)ccn2c1Nc1ccccc1C | inconclusive: 7.61% [signal inhibitor] | –
20 | Cc1cccc2c(=O)cc(CSc3ccccc3NC(=O)c3cccc(Br)c3)[nH]c12 | inconclusive: -0.363% [signal inhibitor] | –
21 | CCc1ccc(S(=O)(=O)Nc2cccc(-c3ccc(OC)nn3)c2)s1 | inconclusive: 0.147% [signal inhibitor] | –
22 | COc1ccc(C2c3sc(=O)[nH]c3SC3C(=O)N(c4ccccc4)C(=O)C32)cc1 (configuration not stated) | inconclusive: 15.7% [signal inhibitor] | –
23 | COc1ccc(NC(=O)CSc2nc3nc(C)cc(C)n3n2)cc1OC | inactive | –

Row | SMILES | IkBa stabilization activation | Potency
24 | CCOc1ccccc1NC(=O)NCc1noc2ccc(C)cc12 | inconclusive: 6.43% [signal inhibitor] | –
25 | CC(C)(C)n1ncc2c(=O)n(CC(=O)NCCc3ccccc3)cnc21 | inactive | –
26 | CC(C)c1ccc2oc(-c3cc(NC(=O)c4cccnc4)ccc3Cl)nc2c1 | inconclusive: 3.95% [signal inhibitor] | –
27 | COc1cccc(NC(=O)c2sc3nc(C)c(C(=O)Nc4ccc(C)cc4C)c(-c4ccc(C)o4)c3c2N)c1 | inconclusive: 1.61% [signal inhibitor] | –
28 | Cc1noc(C)c1COC(=O)c1cc(F)c(F)cc1Cl | – | inconclusive: 10 µM [signal inhibitor, partial curve]
29 | COc1cccc(CC(=O)Nn2c(C)nc3ccccc3c2=O)c1 | inactive | –
30 | Cc1cccc(NC(=O)CN2C(=O)CC(c3ccccc3)Sc3ccccc32)c1 (configuration not stated) | inconclusive: 4.35% [signal inhibitor] | –
31 | COc1ccc(-c2nc(-c3ccc(NC(=O)c4ccncc4)cc3)no2)cc1OC | inconclusive: -7.44% [signal inhibitor] | –
32 | N#Cc1cc2c(=O)n3ccccc3nc2n(CCN2CCOCC2)c1=O | inactive | –
33 | CC(C)c1nc2oc3c(=O)[nH]cnc3c2c2c1CCC2 | inactive | –
34 | O=C(Nc1cccc(O)c1)c1cc(-c2ccccc2F)no1 | inconclusive: 2.53% [signal inhibitor] | –
35 | O=C(NCc1cccc(Cl)c1)c1ccc2c(Cl)c3c(nc2c1)CCCC3 | inconclusive: 2.81% [signal inhibitor] | –
36 | COc1ccc(CCN2C(=O)N(c3ccc(C)cc3)C(=O)C2CC(=O)Nc2ccc(OC)cc2)cc1 (configuration not stated) | inconclusive: 0.661% [signal inhibitor] | –
37 | Clc1ccc(-n2ncc3c(NCC4CCCO4)ncnc32)cc1 (configuration not stated) | inactive | –
38 | COc1cc2nc(=S)n3[nH]c(CCn4nc(C)cc4C)nc3c2cc1OC | inactive | –
39 | c1ccc(-c2cc3c(nn2)CCc2nonc2-3)cc1 | inactive | –
40 | COc1ccccc1NC(=O)c1c(NCc2ccc(C)o2)sc2c1CCC(C)C2 (configuration not stated) | inconclusive: 14% [signal inhibitor] | –
41 | Cc1sc(NC(=O)c2cccs2)c(C(N)=O)c1C | inactive | –
42 | CCCOC(=O)c1c(NC(=O)C2c3ccccc3Oc3ccccc32)sc2c1CCC(C)C2 (configuration not stated) | inactive | –
43 | CC(C(=O)Nc1cc(C(F)(F)F)ccc1Cl)n1nnc2sc3c(c2c1=O)CCCC3 (configuration not stated) | inconclusive: 2.37% [signal inhibitor] | –
44 | COc1cccc(CNC(=O)c2nn(-c3ccccc3Cl)nc2CO)c1 | inconclusive: 0.23% [signal inhibitor] | –
45 | Cc1ccccc1C(=O)NCc1nc2cccnc2n1Cc1ccccc1 | inconclusive: 1.34% [signal inhibitor] | –
46 | CCC(Sc1nnnn1-c1ccccc1)C(=O)Nc1nc2ccccc2s1 (configuration not stated) | inconclusive: -2.33% [signal inhibitor] | –

Row | SMILES | IkBa stabilization activation | Potency
47 | Cc1ccc2oc(-c3ccc(C)c(NC(=O)c4ccc(C(C)(C)C)cc4)c3)nc2c1 | – | inconclusive: 25.1 µM [signal inhibitor]
48 | COc1ccc(S(=O)(=O)c2c(Nc3ccc(F)cc3)sc(C(=O)c3ccc4c(c3)OCO4)c2N)cc1 | inactive | –
49 | Cc1ccc(-c2csc(=Nc3ccccc3)n2Cc2ccc3c(c2)OCO3)cc1C | inconclusive: 16.8% [signal inhibitor] | –
50 | O=C(Nc1cnn(C23CC4CC(CC(C4)C2)C3)c1)c1cnn2cccnc12 | inactive | –
51 | C[N+]1(CCCCC[N+]2(C)CCCC2)CCCC1 | inconclusive: 14.7% [signal activator] | –
52 | O=P(O)(O)O[C@@H]1O[C@H](CO)[C@@H](O)[C@H](O)[C@@H]1O | inactive: 0.345% [at 11.4 µM, scaled: untreated 0%, proteasome inhibitor 100%] | –
53 | N#Cc1c(NC(=O)CSc2nc(N)cc(=O)[nH]2)sc2c1CCCCCC2 | inconclusive: 7.96% [signal inhibitor] | –
54 | CCOC(=O)CNC(=O)N1CCc2cc(S(=O)(=O)N3CCC(C)CC3)ccc21 | inconclusive: 2.31% [signal inhibitor] | –
55 | Cc1cccc(OC(=O)c2cc(-c3ccc4c(c3)OCCO4)on2)c1 | inconclusive: 0.864% [signal inhibitor] | –
56 | O=c1cnc2cnc(OCc3ccccc3)nc2n1CCc1ccccc1 | inactive: -1.17% [at 11.4 µM, scaled: untreated 0%, proteasome inhibitor 100%] | –
57 | CSc1ccc(CNc2ncc(-c3ccccc3)n2C)cc1 | inactive | –
58 | CC(=O)Nc1nonc1-c1nc2ccccc2n1CC1CC1 | inactive | –
59 | O=C1CC(N2CCN(c3ccc(O)cc3)CC2)C(=O)N1Cc1cccs1 (configuration not stated) | inconclusive: 4.23% [signal inhibitor] | –
60 | COc1cccc(Nc2ncc3nc(-c4cccs4)c(=O)n(CCC#N)c3n2)c1 | inactive: -0.103% [at 11.4 µM, scaled: untreated 0%, proteasome inhibitor 100%] | –
61 | COc1ccc(-c2nc3ccccc3o2)cc1NC(=O)C(C)Oc1ccc(Cl)cc1Cl (configuration not stated) | inconclusive: 2.73% [signal inhibitor] | –
62 | CC(C)C12CN3CC(C(C)C)(CN(C1)C3c1ccc(Cl)cc1)C2=O (configuration not stated) | inconclusive: 4.26% [signal inhibitor] | –
63 | CN1CCCC2(CCN(C(=O)c3cc(C(F)(F)F)cc(C(F)(F)F)c3)CC2)C1 | inactive: 4.84% [at 11.4 µM, scaled: untreated 0%, proteasome inhibitor 100%] | –
64 | CN1CCN(c2oc(-c3ccc(COc4ccc(Cl)cc4)o3)nc2C#N)CC1 | inconclusive: -0.761% [signal inhibitor] | –
65 | O=C(CN1C(=O)CCc2cc(S(=O)(=O)N3CCOCC3)ccc21)Nc1cccc(Cl)c1 | inconclusive: 11.9% [signal inhibitor] | –
66 | COc1ccc(NC(=O)Cn2cnc3sc(C)c(S(=O)(=O)N4CCN(C)CC4)c3c2=O)cc1Cl | inconclusive: 3.78% [signal inhibitor] | –
67 | O=C(Nc1cccc(NC(=O)c2ccc(Br)o2)c1)c1ccccc1 | inconclusive: 13% [signal inhibitor] | –
